As usually defined, the IC50 is the midpoint of a concentration-inhibition curve.

IC50 is the fitted dose that halves viability relative to control wells, and lower means more sensitive; a limit (>, <) means that the fit lies beyond the doses tested. AUC, from the same fit, is the share of area under the viability curve across the 256-fold dose range; values near 1 show little effect. An inferred top dose comes from the curve model; the source does not state it. Where an entry number is given, a second screen of the drug exists; the two often differ.

Compound in the first assay: CS(=O)(=O)N1CCN(Cc2cc3nc(-c4cccc5[nH]ncc45)nc(N4CCOCC4)c3s2)CC1 [GDC0941]
The assay can be described thus: Viability of human cancer cell lines after 72 h of drug (GDSC screen). The following applies: screen: GDSC drug entry 1058. How it is done: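 Human cancer cell lines in 384-well plates, medium with 10% serum, drug for 72 h over a 256-fold dose range (nine 2-fold or five 4-fold steps up to the top dose). Adherent lines were fixed and stained with the nucleic acid dye Syto60, suspension lines read with resazurin; signal relative to control wells, capped at 0 and 100%. One two-parameter sigmoid per drug and line, fitted in a mixed model over all curves with the slope shared within a line.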
On to “NCI-H810 (large cell lung carcinoma, adherent, top dose 4 µM)”, for which the AUC came to 0.988 and the IC50 was above 4 µM.

Turning to “NCI-H835 (lung carcinoid, suspension, top dose 4 µM)”, the AUC amounted to 0.875 and the IC50 was 3.6 µM.

Take “NCI-H841 (small cell lung carcinoma, adherent, top dose 4 µM)”: the AUC was found to be 0.889 and the IC50 is above 4 µM.

Turning to “NCI-H847 (small cell lung carcinoma, adherent, top dose 4 µM)”, the AUC was determined as 0.95 and the IC50 was above 4 µM.

With “NCI-H1048 (small cell lung carcinoma, adherent, top dose 4 µM)”, the AUC was 0.779 and the IC50 came out at 1.46 µM.

As to “NCI-H1092 (small cell lung carcinoma, suspension, top dose 4 µM)”, the AUC is 0.938 and the IC50 is above 4 µM.

For the cell line “NCI-H1105 (small cell lung carcinoma, suspension, top dose 4 µM)”, the AUC stood at 0.901 and the IC50 came out at 3.53 µM.

Turning to “NCI-H1155 (large cell lung carcinoma, suspension, top dose 4 µM)”, the AUC came out at 0.784 and the IC50 is 1.38 µM.

Consider “NCI-H1304 (small cell lung carcinoma, suspension, top dose 4 µM)”, for which the AUC was determined as 0.975 and the half-maximal inhibitory concentration (IC50) is above 4 µM.

Take “NCI-H1341 (small cell lung carcinoma, suspension, top dose 4 µM)”: the AUC came out at 0.555 and the IC50 amounted to 0.345 µM.

For the cell line “NCI-H1355 (lung adenocarcinoma, adherent, top dose 2 µM)”, the AUC came out at 0.84 and the IC50 is above 2 µM.

Consider “NCI-H1395 (lung adenocarcinoma, adherent, top dose 4 µM)”, for which the AUC is 0.921 and the IC50 is above 4 µM.

In the case of “NCI-H1417 (small cell lung carcinoma, suspension, top dose 4 µM)”, the AUC turned out to be 0.75 and the IC50 turned out to be 1.53 µM.

In the case of “NCI-H1435 (lung adenocarcinoma, semi-adherent, top dose 4 µM)”, the AUC was 0.943 and the IC50 was above 4 µM.

With “NCI-H1436 (small cell lung carcinoma, suspension, top dose 4 µM)”, the AUC is 0.943 and the IC50 was above 4 µM.

As for “NCI-H1437 (lung adenocarcinoma, adherent, top dose 4 µM)”, the AUC was 0.672 and the IC50 amounted to 0.772 µM.

On to “NCI-H1563 (lung adenocarcinoma, adherent, top dose 4 µM)”, for which the AUC was determined as 0.683 and the IC50 amounted to 0.902 µM.

In the case of “NCI-H1568 (lung adenocarcinoma, adherent, top dose 4 µM)”, the AUC came out at 0.872 and the IC50 was above 4 µM.

For the cell line “NCI-H1623 (lung adenocarcinoma, adherent, top dose 4 µM)”, the AUC came out at 0.542 and the IC50 was found to be 0.335 µM.

With “NCI-H1648 (lung adenocarcinoma, adherent, top dose 2 µM)”, the AUC turned out to be 0.774 and the IC50 worked out at 0.835 µM.

As for “NCI-H1651 (lung adenocarcinoma, adherent, top dose 4 µM)”, the AUC was determined as 0.982 and the IC50 was above 4 µM.

Turning to “NCI-H1688 (small cell lung carcinoma, adherent, top dose 4 µM)”, the AUC is 0.85 and the IC50 came to 3.51 µM.

For the cell line “NCI-H1693 (lung adenocarcinoma, adherent, top dose 2 µM)”, the AUC was determined as 0.944 and the IC50 was above 2 µM.

For “NCI-H1694 (small cell lung carcinoma, suspension, top dose 4 µM)”, the AUC stood at 0.923 and the IC50 was above 4 µM.

As for “NCI-H1755 (lung adenocarcinoma, adherent, top dose 4 µM)”, the AUC worked out at 0.875 and the IC50 is above 4 µM.

Turning to “NCI-H1770 (non-small cell lung carcinoma, suspension, top dose 4 µM)”, the AUC is 0.909 and the IC50 was above 4 µM.

On to “NCI-H1781 (lung adenocarcinoma, adherent, top dose 4 µM)”, for which the AUC worked out at 0.948 and the IC50 was above 4 µM.

Regarding “NCI-H1792 (lung adenocarcinoma, adherent, top dose 4 µM)”, the AUC turned out to be 0.914 and the IC50 was above 4 µM.

For “NCI-H1836 (small cell lung carcinoma, suspension, top dose 4 µM)”, the AUC was determined as 0.988 and the IC50 is above 4 µM.

Take “NCI-H1838 (lung adenocarcinoma, adherent, top dose 2 µM)”: the AUC was 0.984 and the IC50 was above 2 µM.

For the cell line “NCI-H1869 (lung squamous cell carcinoma, adherent, top dose 4 µM)”, the AUC was determined as 0.844 and the IC50 is 3.43 µM.

Turning to “NCI-H1876 (small cell lung carcinoma, adherent, top dose 4 µM)”, the AUC turned out to be 0.505 and the IC50 amounted to 0.258 µM.

As to “NCI-H1944 (lung adenocarcinoma, adherent, top dose 4 µM)”, the AUC is 0.759 and the IC50 was determined as 1.48 µM.

Regarding “NCI-H2009 (lung adenocarcinoma, adherent, top dose 4 µM)”, the AUC was determined as 0.737 and the IC50 amounted to 1.24 µM.

“NCI-H2023 (lung adenocarcinoma, adherent, top dose 2 µM)”: the AUC was 0.851 and the IC50 is above 2 µM.

“NCI-H2052 (mesothelioma, adherent, top dose 4 µM)”: the AUC is 0.965 and the IC50 was above 4 µM.

As for “NCI-H2066 (small cell lung carcinoma, adherent, top dose 4 µM)”, the AUC is 0.874 and the IC50 is above 4 µM.

For the cell line “NCI-H2081 (small cell lung carcinoma, suspension, top dose 4 µM)”, the AUC came to 0.958 and the IC50 is above 4 µM.

With “NCI-H2085 (lung adenocarcinoma, adherent, top dose 2 µM)”, the AUC worked out at 0.769 and the IC50 amounted to 0.819 µM.

Turning to “NCI-H2087 (lung adenocarcinoma, semi-adherent, top dose 4 µM)”, the AUC came to 0.971 and the IC50 is above 4 µM.

On to “NCI-H2135 (non-small cell lung carcinoma, adherent, top dose 4 µM)”, for which the AUC stood at 0.991 and the IC50 was above 4 µM.

“NCI-H2141 (small cell lung carcinoma, suspension, top dose 4 µM)”: the AUC turned out to be 0.932 and the IC50 is above 4 µM.

With “NCI-H2172 (non-small cell lung carcinoma, adherent, top dose 4 µM)”, the AUC was 0.939 and the IC50 was above 4 µM.

As for “NCI-H2227 (small cell lung carcinoma, semi-adherent, top dose 4 µM)”, the AUC came out at 0.901 and the IC50 is above 4 µM.

“NCI-H2291 (lung adenocarcinoma, adherent, top dose 4 µM)”: the AUC came to 0.823 and the IC50 came out at 3.64 µM.

Take “NCI-H2342 (lung adenocarcinoma, adherent, top dose 4 µM)”: the AUC is 0.866 and the IC50 was above 4 µM.

As for “NCI-H2347 (lung adenocarcinoma, adherent, top dose 4 µM)”, the AUC worked out at 0.928 and the IC50 was above 4 µM.

For the cell line “NCI-H2405 (lung adenocarcinoma, adherent, top dose 4 µM)”, the AUC worked out at 0.935 and the IC50 was above 4 µM.

Regarding “NCI-H2444 (non-small cell lung carcinoma, adherent, top dose 4 µM)”, the AUC stood at 0.859 and the IC50 was above 4 µM.

Consider “NCI-H2452 (mesothelioma, adherent, top dose 4 µM)”, for which the AUC came out at 0.925 and the IC50 is above 4 µM.

For the cell line “NCI-H3122 (lung adenocarcinoma, adherent, top dose 4 µM)”, the AUC turned out to be 0.755 and the IC50 was 1.39 µM.

With “NCI-N87 (stomach, adherent, top dose 4 µM)”, the AUC came to 0.767 and the IC50 was 2.18 µM.

“NCI-SNU-1 (stomach, suspension, top dose 4 µM)”: the AUC worked out at 0.981 and the IC50 is above 4 µM.

In the case of “NCI-SNU-5 (stomach, suspension, top dose 4 µM)”, the AUC amounted to 0.612 and the IC50 was 0.509 µM.

Turning to “NCI-SNU-16 (stomach, suspension, top dose 4 µM)”, the AUC stood at 0.985 and the IC50 was above 4 µM.

On to NEC8 (testis, adherent, top dose 4 µM), for which the AUC came to 0.648 and the IC50 stood at 0.599 µM.

Turning to “NH-12 (neuroblastoma, adherent, top dose 4 µM)”, the AUC worked out at 0.755 and the IC50 was determined as 1.5 µM.

Take “NKM-1 (acute myeloid leukaemia, suspension, top dose 4 µM)”: the AUC was found to be 0.771 and the IC50 was determined as 1.58 µM.

Take “NMC-G1 (glioma, adherent, top dose 4 µM)”: the AUC turned out to be 0.887 and the IC50 was above 4 µM.

Staying with this assay, now noted: top dose 4 µM; screen: GDSC drug entry 1527; top dose inferred.
“NCI-H1650 (lung adenocarcinoma, adherent)”: the AUC worked out at 0.868 and the IC50 was above 4 µM.

With “NCI-H2066 (small cell lung carcinoma, adherent)”, the AUC amounted to 0.893 and the IC50 is above 4 µM.

For the origin of these results see the supplement of paper PMC4967469.
